Results taken from PubChem BioAssay AID651804 (National Center for Advancing Translational Sciences (NCATS), 2012).
The campaign covered roughly 1,200 compounds. About 20 (2%) were called active. The shares of active, inactive and inconclusive entries below differ from those in the screen. The call rests on the fitted dose curve; in most records, active means well fitted inhibition curve with a large enough effect; inconclusive means small, poorly fitted or top-dose-only effect; inactive means no such curve, though single readings can be large or run the other way. Potencies of inconclusive entries are left out as doubtful fits.

What follows are compounds tested against Transcriptional regulator ERG (Homo sapiens) (UniProt P11308) (assay: qHTS for Small Molecule Inhibitors of the ERG Ets/DNA interaction: HTRF assay against cherry picks). Settings: His-ERG Ets domain with biotin-DNA; activity change, negative = inhibition: at 154 µM (top of the series).
Procedure, shortened: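 HTRF of His-tagged ERG Ets domain (200 nM solution) with biotin-DNA (200 nM solution) in 300mM KCl, 50mM Tris-HCl pH 7.5, 1mM EDTA, 1mM DTT; 10 min RT. Anti-His cryptate donor plus streptavidin acceptor added, 10 min, FRET read at 615/665 nm.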
Potency means the concentration at half of the fitted maximal effect; tags describe the fitted curve by direction and shape.

UniProt P11308, sequence (P11308 whole entry, looked up, the tested form may be a part): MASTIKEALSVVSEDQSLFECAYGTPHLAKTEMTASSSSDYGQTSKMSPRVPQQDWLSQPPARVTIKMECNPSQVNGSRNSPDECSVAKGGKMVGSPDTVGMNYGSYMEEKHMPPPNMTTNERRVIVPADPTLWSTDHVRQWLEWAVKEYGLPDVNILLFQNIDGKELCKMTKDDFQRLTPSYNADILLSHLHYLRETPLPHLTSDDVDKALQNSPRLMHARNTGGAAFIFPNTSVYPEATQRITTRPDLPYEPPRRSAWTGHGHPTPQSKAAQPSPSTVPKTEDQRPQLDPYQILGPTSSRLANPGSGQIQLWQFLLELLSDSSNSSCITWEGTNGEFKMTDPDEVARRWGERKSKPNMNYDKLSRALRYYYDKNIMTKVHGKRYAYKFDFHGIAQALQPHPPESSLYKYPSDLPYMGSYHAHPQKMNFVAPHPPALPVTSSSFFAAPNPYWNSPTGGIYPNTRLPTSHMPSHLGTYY

Compound | Potency | activity change, negative = inhibition
CC(=O)Nc1ccc(/C(C)=N/NC(=O)c2ccccc2Cl)cc1 | inconclusive [inhibitor, partial curve, poor fit] | –
CCc1cc(C(=O)NNC(=S)Nc2cccc(C)c2)cs1 | – | inactive: -26.5%
Cc1ccc(NC(=O)/C(C#N)=C/c2ccc(C)s2)c(C)c1 | inconclusive [inhibitor, partial curve, poor fit] | –
COc1cc(/C=N/NC(=O)CC2(C)OCCO2)cc(Br)c1O | inconclusive [inhibitor, partial curve, poor fit] | –
CCCn1c(=N)c(S(=O)(=O)c2ccccc2)cc2c(=O)n3ccccc3nc21 | inconclusive [inhibitor, partial curve, poor fit] | –
CCOc1ccc(NC(=O)CCNS(=O)(=O)c2cccc3nsnc23)cc1 | inconclusive [inhibitor, partial curve, poor fit] | –
CC(C)NC(=O)Cn1cnc2c(cnn2-c2ccc(F)cc2)c1=O | inconclusive [inhibitor, single point] | –
CC(C)N1CCC(N2CCN(Cc3cccc4nonc34)CC2CCO)CC1 (stereo not given) | inconclusive [inhibitor, full curve, poor fit] | –
Cn1cccc1C(=O)OCC(=O)Nc1ccc2[nH]c(=O)[nH]c2c1 | inconclusive [inhibitor, partial curve, poor fit] | –
Cc1oc2nc(SCCCC(=O)NCCCO)nc(N)c2c1C | inconclusive [inhibitor, partial curve, poor fit] | –
O=C(OCC(=O)c1c[nH]c2ccccc12)c1ccc([N+](=O)[O-])s1 | active: 35.5 µM | –
O=C(O)CC(c1cccc2ccccc12)N1Cc2ccccc2C1=O (stereo not given) | – | inactive: -11.1%
CCCC(=Nc1ccc(N)cc1)C1=C(O)C(C(=O)OC)C(C)(C)CC1=O (stereo not given) | inconclusive [inhibitor, full curve, poor fit] | –
CC(=O)Nc1ccc(S(=O)(=O)N[C@@H](C)C(=O)N2CCN(C/C=C/c3ccccc3)CC2)cc1 | inconclusive [inhibitor, single point] | –
O=C(NCc1ccc(F)cc1F)c1cc(COc2c(F)cccc2F)on1 | – | inactive: 8.28%
NS(=O)(=O)c1ccc(-c2ccc(/C=C3\SC(=S)N(C4CCS(=O)(=O)C4)C3=O)o2)cc1 (stereo not given) | inconclusive [inhibitor, single point] | –
O=C(Nc1ccc(O)cc1)C1CC=CCC1 (stereo not given) | inconclusive [inhibitor, full curve, poor fit] | –
Cc1cccc(N2C(=O)c3cccc4c(N)ccc(c34)C2=O)c1 | inconclusive [inhibitor, partial curve, poor fit] | –
Clc1ccc(N=c2ssnc2Cl)nc1 | inconclusive [inhibitor, partial curve, poor fit] | –
Cc1csc(SCC(=O)NC2CCS(=O)(=O)C2)n1 (stereo not given) | inconclusive [inhibitor, single point] | –

Compound | Potency | activity change, negative = inhibition
COc1cc2ccccc2ccc1=NO | inconclusive [inhibitor, partial curve, poor fit] | –
O=C(OCC(=O)c1ccc(Cl)s1)c1cncc(Br)c1 | – | inactive: -17.7%
Nc1cccc2c(O)cc(S(=O)(=O)O)cc12 | inconclusive [inhibitor, partial curve] | –
O=C(N/N=C/c1ccc(-c2ccccc2[N+](=O)[O-])o1)[C@H]1C[C@@H]1c1ccccc1 | inconclusive [inhibitor, partial curve, poor fit] | –
N#C/C(=C\c1cn[nH]c1-c1ccc(Cl)cc1)C(=O)NCc1ccccc1 | inconclusive [inhibitor, full curve, poor fit] | –
COc1ccc(CS(=O)c2nc(C)cc(C)c2S(C)(=O)=O)cc1 (stereo not given) | inconclusive [inhibitor, single point] | –
O=C(Nc1ccccc1N1CCCCC1)c1ccc2nccnc2c1 | inconclusive [inhibitor, full curve, poor fit] | –
O=C(NCc1ccccc1)/C(=C/c1ccco1)NC(=O)c1ccco1 | inconclusive [inhibitor, partial curve, poor fit] | –
CN(C)C=NC(=O)c1cc(C(=O)c2ccc(Cl)cc2)c[nH]1 | – | inactive: -14.1%
CCc1n[nH]c(=S)n1/N=C/c1ccc(N(C)c2ccccc2)cc1 | – | inconclusive: -33.2% [inhibitor]
CCN1CCN(c2oc(-c3ccc([N+](=O)[O-])cc3)nc2C#N)CC1 | inconclusive [inhibitor, full curve, poor fit] | –
O=C(Cn1cnc(S(=O)(=O)N2CCCCC2)c1)N1CCN(c2ccc([N+](=O)[O-])cc2)CC1 | inconclusive [inhibitor, partial curve, poor fit] | –
CCCNc1ncnc2c1cnn2C1CCCCO1 (stereo not given) | inconclusive [inhibitor, partial curve] | –
Nc1ccc2nc3c(=O)n(CCc4ccccc4)c(=O)[nH]c3nc2c1 | inconclusive [inhibitor, partial curve, poor fit] | –
c1ccc2sc(NN=C3CCCCCC3)nc2c1 | inconclusive [inhibitor, single point] | –
NC(=S)c1cc2ccc(O)cc2oc1=O | inconclusive [inhibitor, partial curve, poor fit] | –
CCOC(=O)c1c(NC(=O)CSc2nnc(-c3ccc(Cl)cc3)o2)sc2c1CCC2 | inconclusive [inhibitor, partial curve] | –
CC1=Nc2ccccc2/C1=C/c1nc(-c2ccc(C)s2)oc1O | inconclusive [inhibitor, partial curve, poor fit] | –
CN(C)S(=O)(=O)c1ccc(C(=O)OCC(=O)NC(=O)NC2CCCC2)cc1 | inconclusive [inhibitor, full curve, poor fit] | –
COC(=O)C(C)Sc1ccc2nnc(CCNS(=O)(=O)c3ccc(C)cc3)n2n1 (stereo not given) | – | inactive: -21.9%
